Results from article PMC4336329 (PLoS ONE, 2015).
Among all 310,000 compounds or so, about 2,200 (0.71%) showed an effect of 50% or more. Effects have a minus sign here. The list shows a part of the results.

biological target: human ether-à-go-go-related gene (hERG) potassium channel (human, UniProt Q12809); experiment: primary screen, population patch clamp on CHO cells stably expressing hERG
Sequence (Q12809 whole entry, looked up): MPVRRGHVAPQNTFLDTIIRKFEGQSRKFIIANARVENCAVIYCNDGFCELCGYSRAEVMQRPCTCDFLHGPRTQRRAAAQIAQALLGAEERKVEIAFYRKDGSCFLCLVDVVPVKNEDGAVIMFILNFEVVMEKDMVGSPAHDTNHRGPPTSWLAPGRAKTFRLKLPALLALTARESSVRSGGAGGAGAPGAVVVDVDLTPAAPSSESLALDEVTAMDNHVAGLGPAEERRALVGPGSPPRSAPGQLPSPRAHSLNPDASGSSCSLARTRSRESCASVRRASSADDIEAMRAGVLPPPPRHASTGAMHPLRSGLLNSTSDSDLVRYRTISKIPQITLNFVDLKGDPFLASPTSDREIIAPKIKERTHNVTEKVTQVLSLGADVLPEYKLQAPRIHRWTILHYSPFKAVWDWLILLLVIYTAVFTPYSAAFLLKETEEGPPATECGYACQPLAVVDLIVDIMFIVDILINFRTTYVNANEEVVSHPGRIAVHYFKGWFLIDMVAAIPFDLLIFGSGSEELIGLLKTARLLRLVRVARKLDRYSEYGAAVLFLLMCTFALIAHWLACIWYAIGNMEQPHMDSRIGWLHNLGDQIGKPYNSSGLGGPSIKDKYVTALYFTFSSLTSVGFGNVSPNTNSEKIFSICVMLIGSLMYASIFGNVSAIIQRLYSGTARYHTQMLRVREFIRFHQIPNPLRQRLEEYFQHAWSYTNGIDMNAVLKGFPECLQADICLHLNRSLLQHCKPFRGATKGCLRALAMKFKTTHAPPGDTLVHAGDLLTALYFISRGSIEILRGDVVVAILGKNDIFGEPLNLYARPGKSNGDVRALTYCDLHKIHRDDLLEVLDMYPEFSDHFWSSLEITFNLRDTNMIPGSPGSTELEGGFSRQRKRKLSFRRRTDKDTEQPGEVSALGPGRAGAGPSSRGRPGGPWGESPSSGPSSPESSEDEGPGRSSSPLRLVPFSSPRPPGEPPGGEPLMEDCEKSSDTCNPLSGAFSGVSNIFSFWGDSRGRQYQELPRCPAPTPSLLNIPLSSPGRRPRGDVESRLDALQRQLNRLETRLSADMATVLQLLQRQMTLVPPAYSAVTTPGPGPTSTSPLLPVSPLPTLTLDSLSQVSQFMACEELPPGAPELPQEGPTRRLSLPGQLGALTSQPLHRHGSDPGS

| SMILES | hERG current change (%, negative = inhibition) at 1uM |
| --- | --- |
| COCCNC(=O)C(c1ccc(O)cc1)N(Cc1cccs1)C(=O)CCC(=O)Nc1ccccn1 (stereo not drawn) | 16.6% |
| Cc1nc2cc(CO)ccc2s1 | 5.86% |
| CCc1ccc(C)c(OC(=O)c2cncc(Br)c2)c1 | 12.1% |
| Cn1c(=S)n(CCC(=O)O)c2ccccc21 | 16.1% |
| Cc1ccc(S(=O)(=O)N2CCOCC2)cc1NC(=O)CSc1nnnn1C | 13.4% |
| COC(=O)C1(S(=O)(=O)c2cc(Br)cc3c2N(C(C)=O)CC3)CC1 | 7.31% |
| Fc1ccc(OCCOCCOc2cccc3[nH]ccc23)cc1 | 17.7% |
| COC(=O)C1CC(=O)N(c2ccc(OCc3ccccc3Cl)cc2)C1 (stereo not drawn) | 9.09% |
| CCCCOc1ccc(-c2nnn(CC(=O)Nc3ncc(CC(=O)OCC)s3)n2)cc1 | 15.2% |
| Cc1cc(/C=C2/NC(=O)NC2=O)c(C)n1-c1ccncc1 | 9.13% |
| O=C(O)c1ccc(-n2cccn2)c([N+](=O)[O-])c1 | 12.3% |
| CC(C)OP(=O)(OC(C)C)C(NC(=O)c1ccc(Br)cc1)c1ccccc1 (stereo not drawn) | -0.7% |
| Cc1ccc(CNC(=O)CSc2nccn(-c3ccc(C)c(F)c3)c2=O)cc1 | 6.77% |
| COC(=O)c1ccccc1NC(=O)NC1CCCCC1 | 13.8% |
| COc1cccc(/C=N/Nc2cc(Cl)nc(C)n2)c1O | 11.3% |
| CCOC(=O)c1cnn(-c2cc(C)nc3c(-c4ccccc4)cnn23)c1N | 2.33% |
| Fc1ccc(-c2nc3ccccn3c2NCc2ccc3c(c2)OCO3)cc1 | 4.69% |
| CC(C)CCNC(=O)C1(c2cccs2)CCOCC1 | 12.6% |
| C=Cc1ccc(COC(=O)c2cn(CC)c3nc(C)ccc3c2=O)cc1 | -21% |

| SMILES | hERG current change (%, negative = inhibition) at 1uM |
| --- | --- |
| C[C@H]1CN=C(N(C)C)N1CCCCc1ccccc1 | -5.58% |
| CCOC(=O)Cc1csc(SCC(=O)NC2CCS(=O)(=O)C2)n1 (stereo not drawn) | 17.2% |
| COc1ccccc1N=Nc1nc(-c2ccccc2)c(-c2ccccc2)[nH]1 | 2.06% |
| Cc1ccc(NC(=O)C(C)OC(=O)CCC2CCCCC2)cc1 (stereo not drawn) | 3.25% |
| COc1cccc(N(C(=O)CNC(=O)c2ccco2)C(C(=O)NC2CCCC2)c2ccncc2)c1 (stereo not drawn) | 9.57% |
| CCN(Cc1ccncc1)C(=O)CCc1ccccc1 | 9.35% |
| CC(C)c1nnc(NC(=O)CS(=O)(=O)c2ccccc2)s1 | 8.65% |
| COc1ccc(C(=O)Nc2nnc(CC(=O)N/N=C/c3ccc(O)cc3O)s2)cc1 | 15% |
| CCOc1ccc2nc(NCCCNS(=O)(=O)c3ccccc3)c(C#N)cc2c1 | -6.51% |
| COC(=O)c1sccc1NC(=O)COc1ccc(Cl)cc1Cl | 13.5% |
| COc1cc(Cl)c(C)cc1NC(=O)CCCn1c(=O)oc2ccccc21 | 9.24% |
| O=C(NCc1ccc(Cl)cc1)c1ccc(Cl)cc1[N+](=O)[O-] | 5.08% |
| O=C(COC(=O)CCN1C(=O)c2ccccc2C1=O)Nc1ccc(S(=O)(=O)N2CCCC2)cc1 | -0.242% |
| COc1cccc(-c2cc(C(F)(F)F)n3nc(C(=O)N4CCCCC4c4cccnc4)cc3n2)c1 (stereo not drawn) | 11.2% |
| O=C(C1COc2ccccc2O1)N1CCN(Cc2ccc3c(c2)OCO3)CC1 (stereo not drawn) | -8.61% |
| CC(=O)c1ccc(Sc2ccccn2)c([N+](=O)[O-])c1 | 10.3% |
| COc1cc(C(=O)Nc2ccc(OCC(=O)O)cc2)cc(OC)c1OC | 16.4% |
| CC1(C)Cc2c(C#N)c(NCCCO)nc(-c3ccccc3)c2CO1 | -13.3% |
| CC1CCCC(C)N1C(=O)COC(=O)C1CCN(S(=O)(=O)c2c(Cl)cccc2Cl)CC1 (stereo not drawn) | 1.72% |

| SMILES | hERG current change (%, negative = inhibition) at 1uM |
| --- | --- |
| Cc1ccc(N2CC(C(=O)N3CCCCC3)CC2=O)cc1C (stereo not drawn) | -3.77% |
| O=[N+]([O-])c1ncccc1Oc1nc(-c2cccnc2)nc2ccccc12 | 10.2% |
| CC(=O)N[C@@H]1c2c(ccc3ccccc23)OC[C@@H]1COC(C)=O | 8.59% |
| CCOP(=O)(OCC)c1nc(/C=C/c2ccccc2)oc1NCc1ccccc1 | 7.49% |
| CSc1nc2ccccc2n1Cc1c(Cl)cccc1Cl | 11.6% |
| COc1ccc(Oc2c(C)oc3c(CN4CCOCC4)c(O)ccc3c2=O)cc1 | 19% |
| O=C(Nc1cccc(NC(=O)C2CCCO2)c1)c1ccco1 (stereo not drawn) | 10.9% |
| Cc1cc(OCC(=O)Nc2ccncc2)cc(C)c1Cl | 16.2% |
| COc1ccc(OC)c(CN(CCN2CCOCC2)C(=O)Nc2cccc(Cl)c2)c1 | 8.87% |
| CC1(C)O[C@@H]2CC3C4C[C@H](F)C5=CC(=O)C=CC5(C)C4C(O)CC3(C)[C@]2(C(=O)CO)O1 (stereo partly drawn) | 14.9% |
| Cc1cccc(OCCC(=O)N(C)CC(=O)Nc2cccc3ccccc23)c1 | 4.62% |
| CC(=O)COc1ccc2c3c(c(=O)oc2c1)CCCC3 | -4% |
| Cc1c(NC(=O)CCCN2C(=O)c3cccc4cccc(c34)C2=O)c(=O)n(-c2ccccc2)n1C | 5.17% |
| Cc1ccc(CCNC(=O)Cn2ccc3cc(S(=O)(=O)N4CCCC4)ccc32)cc1 | 9.34% |
| O=C(C1CCC(CNS(=O)(=O)c2cccs2)CC1)N1CCN(c2ccc(F)cc2)CC1 (stereo not drawn) | -11.4% |
| COc1cc(C(C)=O)ccc1OCC(O)CNCC1(N2CCCCC2)CCCCC1.O=C(O)C(=O)O (stereo not drawn) | 2.35% |
| Cn1c(=O)cc(N2CCCCC2)[nH]c1=O | 11.2% |
| COc1ccccc1N1CCN(CC(O)COCCOc2ccc(Br)cc2)CC1.Cl (stereo not drawn) | 6.16% |
| O=C1OCC(CO)(CO)N=C1NNc1ccccc1Cl | 14.6% |
